According to the RNAGym collection of RNA variant scans (doi:10.1073/pnas.2313332121):
Variants at the background level are over-represented here.

B1: TPR 5TU (parent)
chain: GGAUCUUCUCGAUCUAACAAAAAAGACAAAUCUGCCACAAAGCUUGAGAGCAUCUUCGGAUGCAGAGGCGGCAGCCUUCGGUGGCGCGAUAGCGCCAACGUUCUCAACUAUGACACGCAAAACGCGUGCUCCGUUGAAUGGAGUUUAUCAUG

Variants of: B1
Test: polymerase ribozyme fitness, log enrichment relative to wild type (log ratio); higher = more active; in vitro selection for triplet polymerase activity
Outline: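 Each subunit of a heterodimeric triplet polymerase ribozyme was mutagenized into a library by PCR, transcribed, and subjected to one round of in vitro selection, run in triplicate. Libraries were annealed with a biotinylated primer, the partner subunit and triplets, incubated frozen at −7 °C, and extended constructs were gel-excised, captured on streptavidin beads and recovered by RT-PCR. Input and output libraries were sequenced on Illumina, keeping genotypes with ≥10 input reads and ≥1 read per output. Fitness is log base 2 of genotype enrichment divided by wild-type enrichment, from inverse-variance-weighted replicate averages.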

**Q.** With A39G C87G G94A U148G as the variant, how does the “polymerase ribozyme fitness (log ratio)” value read?
**A.** ≤ -4.2

**Q.** For A39C A49G, which “polymerase ribozyme fitness (log ratio)” value is on record?
**A.** -3.48

**Q.** With C38U C51U G59A A91C G141C U146G as the variant, how does the “polymerase ribozyme fitness (log ratio)” value read?
**A.** ≤ -4.2

**Q.** Which “polymerase ribozyme fitness (log ratio)” value does the source give for C38U C95G A120U G152A here?
**A.** -3.59

**Q.** Which “polymerase ribozyme fitness (log ratio)” value does the source give for C38U C95A C103U G143A here?
**A.** -3.18

**Q.** With A39G C75U C85A C93A G94A C131G G136C A138C C149U as the variant, how does the “polymerase ribozyme fitness (log ratio)” value read?
**A.** ≤ -4.2

**Q.** For C38U U45G U55A A60U G71A, which “polymerase ribozyme fitness (log ratio)” value is on record?
**A.** ≤ -4.2

**Q.** Which “polymerase ribozyme fitness (log ratio)” value does the source give for A39C G50A C116U here?
**A.** ≤ -4.2

**Q.** For C38U G70A, which “polymerase ribozyme fitness (log ratio)” value is on record?
**A.** -2.9

**Q.** For A39C A49U C85G A89C C103G, which “polymerase ribozyme fitness (log ratio)” value is on record?
**A.** ≤ -4.2

**Q.** Which “polymerase ribozyme fitness (log ratio)” value does the source give for C38U U44A U61A C114U C118U A120U G140A G141A here?
**A.** ≤ -4.2

**Q.** Which “polymerase ribozyme fitness (log ratio)” value does the source give for A39G A41U G84A C85U A98U here?
**A.** ≤ -4.2

**Q.** Which “polymerase ribozyme fitness (log ratio)” value does the source give for A39C C93G C103A C114A here?
**A.** ≤ -4.2

**Q.** For C38U C79G G84A A150G, which “polymerase ribozyme fitness (log ratio)” value is on record?
**A.** ≤ -4.2

**Q.** For A39C A64C, which “polymerase ribozyme fitness (log ratio)” value is on record?
**A.** ≤ -4.2

**Q.** Which “polymerase ribozyme fitness (log ratio)” value does the source give for C38U U82A U144A C149G here?
**A.** ≤ -4.2

**Q.** With A39C G68A G74U A138G A150C as the variant, how does the “polymerase ribozyme fitness (log ratio)” value read?
**A.** ≤ -4.2

**Q.** With A39G A47U G83U C87A U90G as the variant, how does the “polymerase ribozyme fitness (log ratio)” value read?
**A.** ≤ -4.2

**Q.** With A39C U148C as the variant, how does the “polymerase ribozyme fitness (log ratio)” value read?
**A.** ≤ -4.2

**Q.** For A39G A66G C85G G133A G143U U144A, which “polymerase ribozyme fitness (log ratio)” value is on record?
**A.** ≤ -4.2

**Q.** With A39C G84C G143A as the variant, how does the “polymerase ribozyme fitness (log ratio)” value read?
**A.** ≤ -4.2

**Q.** With C38U A52U C87A G136A as the variant, how does the “polymerase ribozyme fitness (log ratio)” value read?
**A.** ≤ -4.2

**Q.** Which “polymerase ribozyme fitness (log ratio)” value does the source give for C38U C57G C76A G81U A89C A91U here?
**A.** ≤ -4.2

**Q.** Which “polymerase ribozyme fitness (log ratio)” value does the source give for A39C A40G G62C C103A G143U here?
**A.** ≤ -4.2

**Q.** Which “polymerase ribozyme fitness (log ratio)” value does the source give for A39C C85U C99G here?
**A.** ≤ -4.2

**Q.** Which “polymerase ribozyme fitness (log ratio)” value does the source give for A39G C54A A73C G80C C87G C93U C116U A121U G140C here?
**A.** ≤ -4.2

**Q.** With C38U G59C G81C C95G C116G as the variant, how does the “polymerase ribozyme fitness (log ratio)” value read?
**A.** -1.71

**Q.** With C38U U53A G80C A98U A113G G117A G133U A138U as the variant, how does the “polymerase ribozyme fitness (log ratio)” value read?
**A.** ≤ -4.2

**Q.** With C38U U134G as the variant, how does the “polymerase ribozyme fitness (log ratio)” value read?
**A.** -2.53

**Q.** Which “polymerase ribozyme fitness (log ratio)” value does the source give for C38U G50A here?
**A.** -2.15

**Q.** For A39C U55A G58A G68A A91C U134C, which “polymerase ribozyme fitness (log ratio)” value is on record?
**A.** ≤ -4.2

**Q.** Which “polymerase ribozyme fitness (log ratio)” value does the source give for C38U G83C C132A here?
**A.** ≤ -4.2

**Q.** With A39G A64G G80A A121C as the variant, how does the “polymerase ribozyme fitness (log ratio)” value read?
**A.** ≤ -4.2

**Q.** Which “polymerase ribozyme fitness (log ratio)” value does the source give for C38U C87A A113U G124A here?
**A.** ≤ -4.2

**Q.** For C38U G67C C72G G80A A91G A98U U134G, which “polymerase ribozyme fitness (log ratio)” value is on record?
**A.** ≤ -4.2

**Q.** With A39G A60G G80A C95A C114A as the variant, how does the “polymerase ribozyme fitness (log ratio)” value read?
**A.** ≤ -4.2

**Q.** With A39G A60U U78C G88A A106C U127G A147C as the variant, how does the “polymerase ribozyme fitness (log ratio)” value read?
**A.** ≤ -4.2

**Q.** For A39C A52C G92A C96A, which “polymerase ribozyme fitness (log ratio)” value is on record?
**A.** ≤ -4.2

**Q.** With C38U C85U A107U C125G A147C as the variant, how does the “polymerase ribozyme fitness (log ratio)” value read?
**A.** ≤ -4.2

**Q.** With C38U C85U U146G as the variant, how does the “polymerase ribozyme fitness (log ratio)” value read?
**A.** -0.571

**Q.** For C38U G58C A91C G94A A97G G141A, which “polymerase ribozyme fitness (log ratio)” value is on record?
**A.** ≤ -4.2

**Q.** For C38U G81A C87G C95U C96A A97G A138C G141U, which “polymerase ribozyme fitness (log ratio)” value is on record?
**A.** ≤ -4.2

**Q.** Which “polymerase ribozyme fitness (log ratio)” value does the source give for C38U G59C A64U G68A C85U G126A U127C here?
**A.** ≤ -4.2

**Q.** For A39G A47G G83A A142G, which “polymerase ribozyme fitness (log ratio)” value is on record?
**A.** ≤ -4.2

**Q.** For A39C G48C A73U C93A, which “polymerase ribozyme fitness (log ratio)” value is on record?
**A.** ≤ -4.2

**Q.** With A39C G65C U134A U145C as the variant, how does the “polymerase ribozyme fitness (log ratio)” value read?
**A.** ≤ -4.2

**Q.** With C38U C57G C75U G86A U148A as the variant, how does the “polymerase ribozyme fitness (log ratio)” value read?
**A.** ≤ -4.2

**Q.** With A39C C54U G67U A98G U102G U144G as the variant, how does the “polymerase ribozyme fitness (log ratio)” value read?
**A.** ≤ -4.2

**Q.** For C38U G46A G48A C87G A89C U102G A106U, which “polymerase ribozyme fitness (log ratio)” value is on record?
**A.** ≤ -4.2

**Q.** With A39C G62C as the variant, how does the “polymerase ribozyme fitness (log ratio)” value read?
**A.** ≤ -4.2

**Q.** For A39G A40G A41C G94A A119U, which “polymerase ribozyme fitness (log ratio)” value is on record?
**A.** ≤ -4.2

**Q.** With A39C A47U G48C G68A C85U A137G U145A as the variant, how does the “polymerase ribozyme fitness (log ratio)” value read?
**A.** ≤ -4.2

**Q.** Which “polymerase ribozyme fitness (log ratio)” value does the source give for C38U G48A A60C C72G C96A C99U C114G U139G U148G here?
**A.** ≤ -4.2

**Q.** Which “polymerase ribozyme fitness (log ratio)” value does the source give for A39C A64G C75G C85U G124A here?
**A.** ≤ -4.2

**Q.** For A39G C85G C95G G141U, which “polymerase ribozyme fitness (log ratio)” value is on record?
**A.** ≤ -4.2

**Q.** For A39C A49C C85A C99A, which “polymerase ribozyme fitness (log ratio)” value is on record?
**A.** ≤ -4.2

**Q.** For C38U A64U A73U G80U A97C A150C, which “polymerase ribozyme fitness (log ratio)” value is on record?
**A.** ≤ -4.2

**Q.** For C38U U78A U90C G92U C95U A121G, which “polymerase ribozyme fitness (log ratio)” value is on record?
**A.** ≤ -4.2

**Q.** Which “polymerase ribozyme fitness (log ratio)” value does the source give for C38U G42A C75G A91G C95U C105U A113U C118G here?
**A.** ≤ -4.2

**Q.** Which “polymerase ribozyme fitness (log ratio)” value does the source give for A39C C43A C87G C108G here?
**A.** ≤ -4.2

**Q.** With C38U U44A G58C G59A G80C G83A A138G as the variant, how does the “polymerase ribozyme fitness (log ratio)” value read?
**A.** ≤ -4.2

**Q.** For A39C A47U C95U U146C C149G, which “polymerase ribozyme fitness (log ratio)” value is on record?
**A.** ≤ -4.2

**Q.** With A39C C54U G86A C96U G128A U130A U139A as the variant, how does the “polymerase ribozyme fitness (log ratio)” value read?
**A.** ≤ -4.2

**Q.** For C38U G88U A91G U109G U134A, which “polymerase ribozyme fitness (log ratio)” value is on record?
**A.** ≤ -4.2

**Q.** With A39C G46A A47U U55A A73G G86A A89U A107C G141C as the variant, how does the “polymerase ribozyme fitness (log ratio)” value read?
**A.** ≤ -4.2

**Q.** Which “polymerase ribozyme fitness (log ratio)” value does the source give for A39C U53A U61A G68U G92A here?
**A.** ≤ -4.2

**Q.** With A39C A47C C63G G84U A89U G141A as the variant, how does the “polymerase ribozyme fitness (log ratio)” value read?
**A.** ≤ -4.2

**Q.** With A39C G50C G59C A97U C129A C149U as the variant, how does the “polymerase ribozyme fitness (log ratio)” value read?
**A.** ≤ -4.2

**Q.** For A39C A49U U56A, which “polymerase ribozyme fitness (log ratio)” value is on record?
**A.** ≤ -4.2

**Q.** With A39G A52G A91U as the variant, how does the “polymerase ribozyme fitness (log ratio)” value read?
**A.** ≤ -4.2

**Q.** With A39C G46A G59U G70C C99A G128A as the variant, how does the “polymerase ribozyme fitness (log ratio)” value read?
**A.** ≤ -4.2

**Q.** For C38U G58A G86A C93U C96A C131A, which “polymerase ribozyme fitness (log ratio)” value is on record?
**A.** -2.97

**Q.** For A39G C54G G94C C105G G133C, which “polymerase ribozyme fitness (log ratio)” value is on record?
**A.** ≤ -4.2

**Q.** For A39C A47G C63U G80A U139A, which “polymerase ribozyme fitness (log ratio)” value is on record?
**A.** ≤ -4.2

**Q.** Which “polymerase ribozyme fitness (log ratio)” value does the source give for C38U C57U C93A A97C C132G here?
**A.** ≤ -4.2

**Q.** For A39G C54U G68C U82C C93A G117C G133A U151A, which “polymerase ribozyme fitness (log ratio)” value is on record?
**A.** ≤ -4.2

**Q.** For A39C A49C G59A G88U U139G, which “polymerase ribozyme fitness (log ratio)” value is on record?
**A.** ≤ -4.2

**Q.** With C38U C87G A137G A142C G143A as the variant, how does the “polymerase ribozyme fitness (log ratio)” value read?
**A.** ≤ -4.2

**Q.** Which “polymerase ribozyme fitness (log ratio)” value does the source give for A39C G58U G62C C108G A113U A121C U151G here?
**A.** ≤ -4.2

**Q.** Which “polymerase ribozyme fitness (log ratio)” value does the source give for C38U A73U C93U A107U G117U here?
**A.** ≤ -4.2

**Q.** Which “polymerase ribozyme fitness (log ratio)” value does the source give for C38U U101G U135A here?
**A.** -0.00114

**Q.** Which “polymerase ribozyme fitness (log ratio)” value does the source give for C38U C99U U109G A113C here?
**A.** ≤ -4.2

**Q.** For A39G C87U, which “polymerase ribozyme fitness (log ratio)” value is on record?
**A.** -2.33

**Q.** Which “polymerase ribozyme fitness (log ratio)” value does the source give for A39G A47C here?
**A.** -1.49
